{"source": "PubChem BioAssay AID588453", "about": "(National Center for Advancing Translational Sciences (NCATS), 2011)", "note": "Screen size: about 390,000 compounds; about 4,000 (1%) were called active. Inconclusive means that the source gave no clear call. Such entries were picked first, then a sample of the others. The call rests on the fitted dose curve; in most records, active means well fitted inhibition curve with a large enough effect; inconclusive means small, poorly fitted or top-dose-only effect; inactive means no such curve, though single readings can be large or run the other way. Where the call is inconclusive, the potency comes from a doubtful curve fit. On the % scale 0 is the no-effect control and ±100 the full control effect; potency means the concentration at half of the fitted maximal effect; tags describe the fitted curve by direction and shape.", "data": [{"molecular_target": "Thioredoxin reductase 1, cytoplasmic (Rattus norvegicus) (UniProt O89049)", "sequence (O89049 whole entry, looked up)": "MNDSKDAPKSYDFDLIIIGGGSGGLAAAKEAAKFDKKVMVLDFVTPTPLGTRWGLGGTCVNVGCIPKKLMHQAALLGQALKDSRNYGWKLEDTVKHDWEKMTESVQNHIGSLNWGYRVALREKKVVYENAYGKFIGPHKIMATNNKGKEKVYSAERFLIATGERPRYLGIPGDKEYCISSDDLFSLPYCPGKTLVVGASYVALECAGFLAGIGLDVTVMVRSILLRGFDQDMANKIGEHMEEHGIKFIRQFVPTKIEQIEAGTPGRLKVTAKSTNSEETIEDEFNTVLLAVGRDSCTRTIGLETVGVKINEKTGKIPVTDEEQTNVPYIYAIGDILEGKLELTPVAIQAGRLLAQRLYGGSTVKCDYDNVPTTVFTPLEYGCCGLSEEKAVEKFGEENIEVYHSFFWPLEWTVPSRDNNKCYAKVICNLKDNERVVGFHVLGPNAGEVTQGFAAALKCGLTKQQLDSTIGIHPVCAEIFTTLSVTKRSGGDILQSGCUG", "test": "qHTS Assay for Inhibitors of Mammalian Selenoprotein Thioredoxin Reductase 1 (TrxR1): qHTS; further: nearly all actives have a fitted effect of over 65% in size", "conditions": "recombinant rTrxR1, NADPH fluorescence consumption, selenite substrate; series mostly up to 114 µM", "in_short": "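Rat TrxR1 (90 nM in the dispensed reagent) was pre-reduced with 400 uM NADPH for 5 min at room temperature, then incubated with compound for 15 min. After 400 uM selenite was added, NADPH fluorescence (Ex 340/Em 450 nm) was followed for 8 min.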", "values": [{"smiles": "CCNC(=O)C/C(C)=N/NC(=O)C(=O)Nc1ccc(CC)cc1", "Potency": "inconclusive: 56.2 µM [inhibitor, partial curve]"}, {"smiles": "CCOc1ccc(C2C(C(=O)c3ccc(C)o3)=C(O)C(=O)N2CCCN(CC)CC)cc1", "note": "(configuration not stated)", "Potency": "inconclusive: 79.4 µM [inhibitor, single point]"}, {"smiles": "Clc1ccc(-c2ccccc2)cn1", "Potency": "inactive"}, {"smiles": "COc1cc2oc(=O)c(CC(=O)NCc3ccc(OC)c(OC)c3)c(C)c2cc1Cl", "Potency": "inactive"}, {"smiles": "O=C(N/N=C\\c1ccc2c(c1)OCO2)c1ccco1", "Potency": "inactive"}, {"smiles": "Cc1ccccc1NC(=O)CSc1cn(CC(=O)N2CCCC2)c2ccccc12", "Potency": "inactive"}, {"smiles": "Cc1cccc(N2CCN(C(=O)Cn3ncc4c3-c3ccccc3OC4)CC2)c1C", "Potency": "inactive"}, {"smiles": "Cc1ccccc1C(=O)/C(C#N)=N/Nc1c(C)n(C)n(-c2ccccc2)c1=O", "Potency": "inconclusive: 15.8 µM [inhibitor, full curve]"}, {"smiles": "COc1nccnc1NS(=O)(=O)c1ccc(NC(=S)NC(=O)c2ccc(F)cc2)cc1", "Potency": "inconclusive: 28.2 µM [inhibitor, partial curve]"}, {"smiles": "O=c1[nH]c(Nc2ccccc2)cc2cc(Br)ccc12", "Potency": "inconclusive: 56.2 µM [inhibitor, partial curve, poor fit]"}, {"smiles": "C=CCn1c(C(c2ccccc2)c2ccccc2)n[nH]c1=S", "Potency": "inconclusive: 79.4 µM [inhibitor, single point]"}, {"smiles": "CC1(C)CC2CC(C)(CN2C(=O)C23CCC(C)(C(=O)C2)C3(C)C)C1", "note": "(configuration not stated)", "Potency": "inactive"}, {"smiles": "CCc1nnc(SCc2ccc(F)cc2Cl)c2cc3sc(C)cc3n12", "Potency": "inconclusive: 79.4 µM [inhibitor, partial curve]"}, {"smiles": "Oc1c(Br)cc(CNC2CCCCC2)cc1Br", "Potency": "inconclusive: 89.1 µM [inhibitor, partial curve, poor fit]"}, {"smiles": "COc1ccc(CNCCCSc2nnnn2C)c(OC)c1", "Potency": "inactive"}, {"smiles": "S=C(NCc1ccc(Cl)cc1Cl)NC1CCCCC1", "Potency": "inactive"}, {"smiles": "CCc1ccc(OCC(=O)NCc2ccco2)c(Br)c1", "Potency": "inconclusive: 22.4 µM [inhibitor, full curve]"}, {"smiles": "COc1ccc(CNC(=O)CCCc2nnc3n(CCC(C)C)c(=O)c4sccc4n23)cc1", "Potency": "inactive"}, {"smiles": "Cc1ccccc1CN1C[C@@H]2C[C@@H](c3cnc(N4CCOCC4)s3)N3CCC[C@@]23C1=O", "Potency": "inconclusive: 22.4 µM [inhibitor, partial curve]"}, {"smiles": "Cc1c(C)n2c(SCC(=O)N3CCN(c4ccccc4)CC3)nnc2[nH]c1=O", "Potency": "inconclusive: 12.6 µM [inhibitor, partial curve]"}, {"smiles": "N=C1/C(=C/c2ccc(Br)o2)C(=O)N=C2SC(CC(=O)N3CCCC3)=NN12", "Potency": "inconclusive: 28.2 µM [inhibitor, partial curve]"}, {"smiles": "O=C(CSc1ncccc1C(=O)O)c1ccc2ccccc2c1", "Potency": "inactive"}, {"smiles": "COc1ccc(/C=C(/CC(=O)NCc2ccc(Cl)cc2)c2nc3ccccc3s2)cc1", "Potency": "inconclusive: 89.1 µM [inhibitor, single point]"}, {"smiles": "Cc1onc(-c2c(F)cccc2Cl)c1C(=O)NCc1ccco1", "Potency": "inconclusive: 79.4 µM [inhibitor, partial curve, poor fit]"}, {"smiles": "CN(C(=O)COC(=O)c1cc(-c2ccco2)nc2ccccc12)C1CCS(=O)(=O)C1", "note": "(configuration not stated)", "Potency": "inconclusive: 20 µM [inhibitor, full curve]"}, {"smiles": "N=c1c(C(=O)NCc2ccc(F)cc2)cc2c(=O)n3ccccc3nc2n1Cc1ccco1", "Potency": "inconclusive: 79.4 µM [inhibitor, single point]"}, {"smiles": "COc1ccc(C(=O)NC(=S)NCCO)cc1Br", "Potency": "inactive"}, {"smiles": "COc1ccc(Cn2c(C)ccc2C)cc1", "Potency": "active: 31.6 µM"}, {"smiles": "COc1ccc(CCC(=O)OCC(=O)c2c(N)n(CC(C)C)c(=O)n(C)c2=O)cc1", "Potency": "inactive"}, {"smiles": "COc1ccc(/C=C/C(=O)c2ccc3c(c2)OCO3)cc1OC", "Potency": "inconclusive: 79.4 µM [inhibitor, single point]"}, {"smiles": "CC1Cc2cc(S(=O)(=O)CCC(=O)Nc3ccc(Cl)cc3F)ccc2N1C(=O)C1CC1", "note": "(configuration not stated)", "Potency": "inactive"}, {"smiles": "CC(=O)c1ccc(NC(=S)Nc2cccc(Cl)c2C)cc1", "Potency": "inconclusive: 35.5 µM [inhibitor, full curve]"}, {"smiles": "CCOc1ccc(CN(C(=O)/C=C/c2ccco2)C2CCS(=O)(=O)C2)cc1", "note": "(configuration not stated)", "Potency": "inconclusive: 22.4 µM [inhibitor, full curve]"}, {"smiles": "CC(C)(C)OC(=O)N1CCC[C@H]1c1nnc(SCc2ccc(Cl)cc2)o1", "activity change, negative = inhibition": "inactive: 14.8% [at 11.4 µM]"}, {"smiles": "CNc1c(Cl)cc(C=O)cc1Cl", "Potency": "inconclusive: 79.4 µM [inhibitor, single point]"}, {"smiles": "CC(=O)c1ccc2noc(-c3ccc(C)cc3)c2c1", "Potency": "active: 7.08 µM"}, {"smiles": "Cc1ccc(C)c(N2CCN(C(=O)c3cc4sccc4n3C)CC2)c1", "Potency": "inactive"}, {"smiles": "O=C(NCc1ccccc1)c1ccc2nc(N3CCOCC3)sc2c1", "Potency": "inconclusive: 79.4 µM [inhibitor, single point]"}, {"smiles": "COc1ccc(-n2c(=O)c3c4c(sc3n3c(=S)[nH]nc23)CCC4)cc1", "Potency": "inconclusive: 0.708 µM [inhibitor, full curve, poor fit]"}, {"smiles": "O=[N+]([O-])c1ccc(Sc2ncccn2)c([N+](=O)[O-])c1", "Potency": "inconclusive: 31.6 µM [inhibitor, single point]"}, {"smiles": "CCOc1ccccc1N1CCN(C(=O)Cc2ccc(S(=O)(=O)N3CCOCC3)s2)CC1", "Potency": "inconclusive: 89.1 µM [inhibitor, single point]"}, {"smiles": "Brc1cccc[n+]1C/C=C/C[n+]1ccccc1Br", "Potency": "inconclusive: 56.2 µM [inhibitor, partial curve, poor fit]"}, {"smiles": "CC(C)CC(=O)NC(=S)Nc1ccc(NC(=O)c2ccco2)cc1", "Potency": "inconclusive: 31.6 µM [inhibitor, full curve]"}, {"smiles": "c1ccc2c(c1)NCC1CCCN21", "note": "(configuration not stated)", "Potency": "active: 79.4 µM"}, {"smiles": "COc1ccc(OC)c(NC(=S)NCc2ccc(S(N)(=O)=O)cc2)c1", "Potency": "inconclusive: 100 µM [inhibitor, partial curve, poor fit]"}, {"smiles": "Cc1cc(C)cc(NC(=S)/C(=C(\\[O-])c2ccc(Cl)s2)[n+]2cccc(C)c2)c1", "Potency": "inactive"}, {"smiles": "CC1NC(=O)NC1CCCCCC(=O)NCCc1ccccc1", "note": "(configuration not stated)", "Potency": "inconclusive: 44.7 µM [inhibitor, partial curve]"}]}]}
